The list shows a part of the results.
Assays:
Assay in all cases: glycan array binding signal (z-score within array); higher = stronger binding
Conditions in all cases: glycan notation: IUPAC condensed, linker removed
[1] = molecular target: Gal(b1-4)GlcNAc(b1-3)Gal(b1-4)GlcNAc(b1-3)[Gal(b1-4)GlcNAc(b1-3)Gal(b1-4)GlcNAc(b1-6)]GalNAc
Procedure, shortened: (§1)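 Arrays were curated from the Consortium for Functional Glycomics database, 3228 in total, and kept only where the protein sequence was available. Binding is expressed as a within-array Z-score. This score was averaged across arrays of the same protein sequence at different concentrations or buffers and across linkers, and negative values can be read as non-binding.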

[2] = molecular target: Gal(b1-4)GlcNAc(b1-3)Gal(b1-4)GlcNAc(b1-6)[Gal(b1-3)]GalNAc
Procedure, shortened: as §1

[3] = molecular target: Gal(b1-4)GlcNAc(b1-3)Gal(b1-4)[Fuc(a1-3)]GlcNAc(b1-3)Gal(b1-4)[Fuc(a1-3)]GlcNAc
Procedure, shortened: as §1

[4] = molecular target: Gal(b1-4)GlcNAc(b1-3)GalNAc
Procedure, shortened: as §1

[5] = molecular target: Gal(b1-4)GlcNAc(b1-3)[Fuc(a1-3)GlcNAc(b1-6)]Gal(b1-4)Glc
Procedure, shortened: as §1

[6] = molecular target: Gal(b1-4)GlcNAc(b1-3)[Gal(b1-4)GlcNAc(b1-6)]Gal(b1-4)GlcNAc
Procedure, shortened: as §1

[7] = molecular target: Gal(b1-4)GlcNAc(b1-3)[GlcNAc(b1-6)]Gal(b1-4)GlcNAc
Procedure, shortened: as §1

[8] = molecular target: Gal(b1-4)GlcNAc(b1-6)Gal(b1-4)GlcNAc
Procedure, shortened: as §1

[9] = molecular target: Gal(b1-4)GlcNAc(b1-6)GalNAc
Procedure, shortened: as §1

[10] = molecular target: Gal(b1-4)GlcNAc(b1-6)[Gal(b1-3)]GalNAc
Procedure, shortened: as §1

[11] = molecular target: Gal(b1-4)GlcNAc(b1-6)[Gal(b1-4)GlcNAc(b1-3)]GalNAc
Procedure, shortened: as §1

Gal(b1-4)GlcNAc6P = molecular target: Gal(b1-4)GlcNAc6P
Procedure, shortened: as §1

Gal(b1-6)Gal = molecular target: Gal(b1-6)Gal
Procedure, shortened: as §1

Gal3S(b1-3)GalNAc = molecular target: Gal3S(b1-3)GalNAc
Procedure, shortened: as §1

Gal3S(b1-3)GlcNAc = molecular target: Gal3S(b1-3)GlcNAc
Procedure, shortened: as §1

[12] = molecular target: Gal3S(b1-3)[Fuc(a1-4)]GlcNAc
Procedure, shortened: as §1

Gal3S(b1-4)Glc = molecular target: Gal3S(b1-4)Glc
Procedure, shortened: as §1

Gal3S(b1-4)Glc6S = molecular target: Gal3S(b1-4)Glc6S
Procedure, shortened: as §1

Gal3S(b1-4)GlcNAc = molecular target: Gal3S(b1-4)GlcNAc
Procedure, shortened: as §1

[13] = molecular target: Gal3S(b1-4)[Fuc(a1-3)]Glc6S
Procedure, shortened: as §1

[14] = molecular target: Gal3S(b1-4)[Fuc(a1-3)]GlcNAc
Procedure, shortened: as §1

[15] = molecular target: Gal3S(b1-4)[Fuc(a1-3)]GlcNAc6S
Procedure, shortened: as §1

Gal3S4S(b1-4)GlcNAc = molecular target: Gal3S4S(b1-4)GlcNAc
Procedure, shortened: as §1

Gal3S6S(b1-4)GlcNAc = molecular target: Gal3S6S(b1-4)GlcNAc
Procedure, shortened: as §1

Gal3S6S(b1-4)GlcNAc6S = molecular target: Gal3S6S(b1-4)GlcNAc6S
Procedure, shortened: as §1

Gal4S(b1-4)GlcNAc = molecular target: Gal4S(b1-4)GlcNAc
Procedure, shortened: as §1

Gal4S6S(b1-4)GlcNAc = molecular target: Gal4S6S(b1-4)GlcNAc
Procedure, shortened: as §1

Gal6P(b1-4)GlcNAc = molecular target: Gal6P(b1-4)GlcNAc
Procedure, shortened: as §1

Gal6S(b1-3)GlcNAc = molecular target: Gal6S(b1-3)GlcNAc
Procedure, shortened: as §1

Gal6S(b1-3)GlcNAc6S = molecular target: Gal6S(b1-3)GlcNAc6S
Procedure, shortened: as §1

Gal6S(b1-4)Glc = molecular target: Gal6S(b1-4)Glc
Procedure, shortened: as §1

Gal6S(b1-4)Glc6S = molecular target: Gal6S(b1-4)Glc6S
Procedure, shortened: as §1

Gal6S(b1-4)GlcNAc = molecular target: Gal6S(b1-4)GlcNAc
Procedure, shortened: as §1

Gal6S(b1-4)GlcNAc6S = molecular target: Gal6S(b1-4)GlcNAc6S
Procedure, shortened: as §1

GalNAc(a1-3)Gal = molecular target: GalNAc(a1-3)Gal
Procedure, shortened: as §1

GalNAc(a1-3)GalNAc = molecular target: GalNAc(a1-3)GalNAc
Procedure, shortened: as §1

[16] = molecular target: GalNAc(a1-3)GalNAc(b1-3)Gal(a1-4)Gal(b1-4)Glc
Procedure, shortened: as §1

[17] = molecular target: GalNAc(a1-3)GalNAc(b1-3)Gal(a1-4)Gal(b1-4)GlcNAc
Procedure, shortened: as §1

GalNAc(b1-3)Gal = molecular target: GalNAc(b1-3)Gal
Procedure, shortened: as §1

[18] = molecular target: GalNAc(b1-3)Gal(a1-4)Gal(b1-4)GlcNAc
Procedure, shortened: as §1

[19] = molecular target: GalNAc(b1-3)Gal(a1-4)Gal(b1-4)GlcNAc(b1-3)Gal(b1-4)Glc
Procedure, shortened: as §1

[20] = molecular target: GalNAc(b1-3)Gal(a1-6)Gal(b1-4)Glc
Procedure, shortened: as §1

GalNAc(b1-3)GalNAc = molecular target: GalNAc(b1-3)GalNAc
Procedure, shortened: as §1

GalNAc(b1-3)GlcNAc = molecular target: GalNAc(b1-3)GlcNAc
Procedure, shortened: as §1

GalNAc(b1-4)Gal(b1-4)Glc = molecular target: GalNAc(b1-4)Gal(b1-4)Glc
Procedure, shortened: as §1

B1: LSL-150 (Laetiporus sulphureus), Q7Z8V1 (protein)
chain: MTDIYIPPEGLYFRLLGFASRQVIFARNSPSPDVGLSPVNDQATDQYFSLIYGTGEHAGLYAIKSKATGKVLFSRRPAEPYVGQIDGDGRYPDNWFKIEPGKTYLSKYFRLVQPSTGTALVSRTHLQPYFWNHPQTEVFDDQYFTFLFEDHHHHHH
- glycan array binding signal (z-score) [1]: 0.034
- glycan array binding signal (z-score) [2]: -0.172
- glycan array binding signal (z-score) [3]: -0.186
- glycan array binding signal (z-score) [4]: -0.204
- glycan array binding signal (z-score) [5]: -0.212
- glycan array binding signal (z-score) [6]: -0.185
- glycan array binding signal (z-score) [7]: -0.206
- glycan array binding signal (z-score) [8]: -0.206
- glycan array binding signal (z-score) [9]: -0.207
- glycan array binding signal (z-score) [10]: -0.203
- glycan array binding signal (z-score) [11]: -0.196
- glycan array binding signal (z-score) (Gal(b1-4)GlcNAc6P): -0.208
- glycan array binding signal (z-score) (Gal(b1-6)Gal): -0.209
- glycan array binding signal (z-score) (Gal3S(b1-3)GalNAc): -0.2
- glycan array binding signal (z-score) (Gal3S(b1-3)GlcNAc): -0.197
- glycan array binding signal (z-score) [12]: -0.2
- glycan array binding signal (z-score) (Gal3S(b1-4)Glc): -0.196
- glycan array binding signal (z-score) (Gal3S(b1-4)Glc6S): -0.193
- glycan array binding signal (z-score) (Gal3S(b1-4)GlcNAc): -0.202
- glycan array binding signal (z-score) [13]: -0.182
- glycan array binding signal (z-score) [14]: -0.205
- glycan array binding signal (z-score) [15]: -0.2
- glycan array binding signal (z-score) (Gal3S4S(b1-4)GlcNAc): -0.206
- glycan array binding signal (z-score) (Gal3S6S(b1-4)GlcNAc): -0.193
- glycan array binding signal (z-score) (Gal3S6S(b1-4)GlcNAc6S): -0.193
- glycan array binding signal (z-score) (Gal4S(b1-4)GlcNAc): -0.188
- glycan array binding signal (z-score) (Gal4S6S(b1-4)GlcNAc): -0.198
- glycan array binding signal (z-score) (Gal6P(b1-4)GlcNAc): -0.21
- glycan array binding signal (z-score) (Gal6S(b1-3)GlcNAc): -0.203
- glycan array binding signal (z-score) (Gal6S(b1-3)GlcNAc6S): -0.208
- glycan array binding signal (z-score) (Gal6S(b1-4)Glc): -0.199
- glycan array binding signal (z-score) (Gal6S(b1-4)Glc6S): -0.196
- glycan array binding signal (z-score) (Gal6S(b1-4)GlcNAc): -0.206
- glycan array binding signal (z-score) (Gal6S(b1-4)GlcNAc6S): -0.204
- glycan array binding signal (z-score) (GalNAc(a1-3)Gal): -0.202
- glycan array binding signal (z-score) (GalNAc(a1-3)GalNAc): -0.205
- glycan array binding signal (z-score) [16]: -0.197
- glycan array binding signal (z-score) [17]: -0.205
- glycan array binding signal (z-score) (GalNAc(b1-3)Gal): -0.207
- glycan array binding signal (z-score) [18]: -0.183
- glycan array binding signal (z-score) [19]: -0.142
- glycan array binding signal (z-score) [20]: -0.202
- glycan array binding signal (z-score) (GalNAc(b1-3)GalNAc): -0.207
- glycan array binding signal (z-score) (GalNAc(b1-3)GlcNAc): -0.203
- glycan array binding signal (z-score) (GalNAc(b1-4)Gal(b1-4)Glc): -0.205

Source: the supplement of paper PMC8728848
